Results reported in PubChem BioAssay AID686971 (National Center for Advancing Translational Sciences (NCATS), 2013).
In all, about 360,000 compounds went through this assay and about 7,500 (2.1%) were called active. Inconclusive means that the source gave no clear call. Such entries were picked first, then a sample of the others. Calls follow the shape of the dose curve; as a rule, active = well fitted cell-killing curve with a large enough effect; inconclusive = small, poorly fitted or top-dose-only effect, or effect the other way, or another doubt; inactive = no such curve, though single readings can be large or run the other way. No potency is given beside an inconclusive call; the fits are too rough.
Potency is read from the fitted curve at half-maximal effect; tags tell the direction and shape of the fitted curve.

Test: qHTS for induction of synthetic lethality in tumor cells producing 2HG: qHTS for the HT-1080-IDH1KD cell line;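 as to activity, negative = toxicity: 0% = DMSO wells and -100% = cell-free medium wells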
Conditions: HT-1080 IDH1 knockdown viability, ATP luminescence, 48 h; activity, negative = toxicity: at 46.1 µM (top of the series) unless noted
Outline: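 CellTiter-Glo luminescence after 48 h compound exposure at 37 degrees C of IDH1-knockdown HT-1080 cells in 5% FBS RPMI. %Activity scaled between DMSO wells and cell-free media wells, with curves fitted and assigned curve classes.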
For O=c1cc(-c2c(F)c(F)c(F)c(F)c2F)oc2ccccc12, the Potency was inconclusive [cytotoxic, single point]. With CCCc1c(-c2ccc(F)cc2)ncn1Cc1ccccc1OC the Potency was inconclusive [cytotoxic, partial curve]. With COc1cc(/C=N/n2cnc3scc(-c4cccs4)c3c2=O)cc(OC)c1OC the Potency was inconclusive [cytotoxic, single point]. For N#CCC(=O)N/N=C\c1cc(Br)ccc1OC/C=C/c1ccccc1, the Potency was inconclusive [cytotoxic, single point]. In the case of CCOC(=O)Cc1csc(NC(=O)Nc2ccc(OC(F)(F)F)cc2)n1, the Potency is reported as inconclusive [cytotoxic, partial curve]. For COc1ccc(/C=C/C(=O)c2ccccc2)c(OC)c1, the Potency was inconclusive [cytotoxic, single point]. For CC(C)(C)NC(=O)C(c1ccc(-c2ccccc2)cc1)N(C[C@H]1CC[C@@H]([C@@H]2CC[C@H](CO)O2)O1)C(=O)c1ccc(-c2ccccc2)cc1 (stereo partly drawn), the Potency was inconclusive [cytotoxic, single point]. For COc1ccccc1N=Nc1ccc(O)c2ncccc12, the Potency was inconclusive [cytotoxic, partial curve]. With C=C(C)c1cccc(C(C)(C)NC(=O)NC2CC(C)(C)NC(C)(C)C2)c1 the “activity, negative = toxicity” value was inactive: -3.8%. With COCCCNC(=O)Cn1c(=O)n(Cc2ccccc2Cl)c(=O)c2cc(OC)c(OC)cc21 the Potency was inconclusive [rising, single point]. In the case of CCc1cccc(C)c1NC(=O)COC(=O)C1CCN(S(=O)(=O)c2ccccc2)CC1, the “activity, negative = toxicity” value is reported as inactive: 0.474%. With COc1cccc(OCc2nc3ncc(Br)cc3[nH]2)c1 the Potency was inconclusive [cytotoxic, full curve]. With COc1ccc(C2=NOC(C(=O)NCc3ccco3)C2)cc1 (stereo not drawn) the Potency was active: 6.31 µM. With C=CCNC(=O)NC(=O)COC(=O)/C=C/c1cccc([N+](=O)[O-])c1 the Potency was inconclusive [cytotoxic, single point]. For COC(=O)c1ccccc1NC(=O)c1cnn2c(C(F)F)cc(C3CC3)nc12, the Potency was inconclusive [cytotoxic, single point]. For O=C(Nc1ccc(Oc2ccccc2)cc1)c1csc([C@@H]2C[C@H](O)[C@@H](CO)O2)n1, the Potency was active: 2.59 µM. For O=C(Nc1ccc2c(c1)OCCO2)c1cccc(C(=O)Nc2ccc3c(c2)OCCO3)c1, the Potency was inconclusive [cytotoxic, single point]. In the case of O[Si](CCCN1CCCCC1)(c1ccc(F)cc1)C1CCCCC1 (stereo not drawn), the Potency is reported as active: 20.6 µM. With O=C1CSC(=S)N1N=Cc1ccccc1O the “activity, negative = toxicity” value was inactive: 6.8%. In the case of CCOc1ccccc1NC(=O)CCNS(=O)(=O)c1cccc2nonc12, the “activity, negative = toxicity” value is reported as inactive: 9.75%. For CC(C)c1ccc(NC(=O)C2Cc3c(-c4ccco4)ccnc3O2)cc1 (stereo not drawn), the Potency was inconclusive [cytotoxic, single point]. For CC(C)N1CC(C(=O)Nc2ccccc2)CC1=O (stereo not drawn), the “activity, negative = toxicity” value was inactive: -0.648%. For COc1ccc(CCNC(=O)c2nc(-c3cccs3)no2)cc1OC, the Potency was inconclusive [cytotoxic, single point]. For CC(OC(=O)Cc1ccc(Cl)cc1)C(=O)NC1CCCCC1C (stereo not drawn), the “activity, negative = toxicity” value was inactive: 17.5%. With COc1ccccc1C(=O)N(CCC1CCCN1C)c1nc2ccccc2s1 (stereo not drawn) the Potency was inconclusive [cytotoxic, single point]. In the case of COC(=O)c1cc(CSc2nnc(NC3CCCCC3)s2)oc1C, the Potency is reported as active: 18.4 µM. With CN1C(=O)CSC1=S the “activity, negative = toxicity” value was inactive: 10.6%. For COC(=O)CNC(=O)/C=C/c1ccc(OC)cc1, the “activity, negative = toxicity” value was inactive: 18.8%. In the case of CCOC(=O)CC(=O)CSc1nc(-c2ccc3c(c2)OCO3)cc(C(F)(F)F)c1C#N, the Potency is reported as inconclusive [cytotoxic, single point]. With CCCCNC(=O)c1cn(CC(C)C)c(=O)c2c1c1ccccc1n2C the “activity, negative = toxicity” value was inactive: 8.11%. For Cc1ccc(C)c(NS(=O)(=O)c2ccc3oc(=O)ccc3c2)c1, the “activity, negative = toxicity” value was inactive: -1.37%. For Cc1ccnc2c1ccc1c(C)ccnc12, the Potency was active: 14.6 µM. For Cn1nc(C(C)(C)C)cc1NC(=O)C1(C)CCN1C(=O)Cc1ccc(-c2ccccc2)cc1 (stereo not drawn), the Potency was inconclusive [cytotoxic, single point]. For CCOc1ccccc1N(C)C(=O)Cn1ncc2c([nH]c3ccc(C)cc32)c1=O, the Potency was inconclusive [cytotoxic, single point]. With CN(C)CCn1c(=O)n(-c2cccc(Cl)c2)c(=O)c2c3c(sc21)CCCCC3 the Potency was inconclusive [cytotoxic, single point]. For Cc1nc(C(=O)NNC(=O)c2ccc(Cl)cc2)c(C(F)(F)F)o1, the Potency was inconclusive [cytotoxic, single point]. For O=C(Nc1cccc(OC(F)(F)F)c1)C1Cc2c(-c3ccccc3Oc3ccccc3)ccnc2O1 (stereo not drawn), the Potency was inconclusive [cytotoxic, single point]. With Cc1ccc(C2(c3noc(CN(C)Cc4cccnc4)n3)CCCC2)cc1 the “activity, negative = toxicity” value was inactive: 7.27%. For O=Cc1cc(Br)c(OC(=O)N2CCOCC2)c(Br)c1, the “activity, negative = toxicity” value was inactive: -1.91%. In the case of CN(C)c1ccc(NC(=O)Nc2ccc3c(c2)c(=O)n(C)n3-c2ccccc2)cc1, the Potency is reported as inconclusive [cytotoxic, single point]. With Cc1nn(-c2ccccc2)c(C)c1/C=N/NC(=O)c1cc(-c2ccc(Cl)s2)[nH]n1 the Potency was active: 0.891 µM. For O=S(=O)(Nc1ccc(Cc2ccncc2)cc1)c1ccc(Cl)c(Cl)c1, the Potency was inconclusive [cytotoxic, single point]. In the case of O=[N+]([O-])c1nc2ccccc2[nH]1, the “activity, negative = toxicity” value is reported as inactive: 8.76%. In the case of COc1cc(C(=O)OCC(=O)Nc2ccc(S(=O)(=O)NC3=NCCCCC3)cc2)cc(OC)c1OC, the “activity, negative = toxicity” value is reported as inactive: 1.57%. For NC(=S)N=Nc1c(O)n(CC(=O)Nc2ccccc2)c2ccccc12, the Potency was inconclusive [cytotoxic, single point]. For COc1cc(OC)c(NS(=O)(=O)c2ccc(Cl)c(C(=O)OC(C)C(=O)N3CCCC3)c2)cc1Cl (stereo not drawn), the Potency was inconclusive [cytotoxic, single point]. For CC1(C(=O)NCCc2ccccc2)Cc2c(-c3cccc(C(F)(F)F)c3)ccnc2O1 (stereo not drawn), the Potency was inconclusive [cytotoxic, partial curve]. With O=C(O)c1cccc(NC2=C(Cl)C(=O)c3ccccc3C2=O)c1 the Potency was active: 16.4 µM. For CCc1nc2ccc(C(=O)N(CC)CCN(C)C)cn2c1N(C)CCCc1ccccc1, the Potency was inconclusive [cytotoxic, single point]. For CC(CNC(=O)c1ccc(C#N)cc1)NC(=O)c1ccc(C#N)cc1 (stereo not drawn), the “activity, negative = toxicity” value was inactive: -2.87%. For COc1ccc(-c2ccc(CCC(=O)O)n2-c2ccccc2O)cc1, the Potency was inconclusive [cytotoxic, single point]. In the case of Nc1[nH]c(C(=O)c2ccc(Br)cc2)c(-c2ccc(Br)cc2)c1C(=O)NCCc1c[nH]c2ccccc12, the Potency is reported as inconclusive [cytotoxic, single point]. With CC(NC(=S)Nc1cccc(C(F)(F)F)c1)C(C)(C)C (stereo not drawn) the Potency was inconclusive [cytotoxic, single point]. With O=C(N/N=C/c1ccccc1O)c1cccc2ccccc12 the Potency was active: 9.2 µM. For Cc1cc(OCC(=O)NCCc2c[nH]c3ccccc23)c2c(C)c(C)c(=O)oc2c1, the “activity, negative = toxicity” value was inactive: -3.7%. For CCCN1CNC(=S)N(c2cccc(C)c2C)C1, the Potency was inconclusive [cytotoxic, single point]. In the case of COc1ccc(C(=O)Nc2cccc(C(=O)NCc3ccco3)c2)cc1, the Potency is reported as inconclusive [cytotoxic, partial curve, poor fit]. For COc1cc2c3nnc(-c4ccc(F)cc4)c-3cn(Cc3ccccc3)c2cc1OC, the Potency was inconclusive [cytotoxic, single point]. In the case of Cc1ccc(C(=O)NC2CCc3ccccc3C2=O)cc1 (stereo not drawn), the “activity, negative = toxicity” value is reported as inactive: 1.28%. For CCOc1cc2c(cc1C(C)(C)C)NC(=O)CS2, the Potency was inconclusive [cytotoxic, single point]. For O=C(NCCN1CCC(n2c(=O)[nH]c3ccccc32)CC1)c1ccc(F)c(F)c1, the “activity, negative = toxicity” value was inactive: 0.697%. For COc1ccc(CN(C)CC(O)COC(c2ccccc2)c2ccccc2)c(OC)c1OC (stereo not drawn), the Potency was inconclusive [cytotoxic, partial curve]. With COc1ccc(S(=O)(=O)NCC2CCCO2)cc1NC(=O)c1ccccc1F (stereo not drawn) the Potency was inconclusive [cytotoxic, single point]. In the case of COCCn1c(SC(C)C(=O)Nc2ccc(Cl)cn2)nnc1-c1ccncc1 (stereo not drawn), the “activity, negative = toxicity” value is reported as inactive: 8.01%. With Cn1nnnc1SCCNCc1cccc2ccccc12 the Potency was inconclusive [cytotoxic, single point]. For O=C(Nc1ccc(Cl)c(-c2nc3ccccc3[nH]2)c1)c1cccnc1, the Potency was inconclusive [cytotoxic, partial curve]. For Cc1ccccc1-c1csc(C(O)c2cccnc2)n1 (stereo not drawn), the “activity, negative = toxicity” value was inactive: 2.07%. In the case of COc1ccc2[nH]cc(/C=C/C(=O)c3ccccc3)c2c1, the Potency is reported as active: 18.4 µM. In the case of O=C(CN1CCCC1)Nc1nc(-c2ccc3c(c2)CCN3C(=O)c2ccccc2F)cs1, the Potency is reported as inconclusive [cytotoxic, single point]. For O=P(COCCOCP(=O)(c1ccccc1)c1ccccc1)(c1ccccc1)c1ccccc1, the “activity, negative = toxicity” value was inactive: -4.66%. In the case of O=C(Nc1nccs1)c1ccc(CSc2nnnn2-c2ccccc2)cc1, the Potency is reported as inconclusive [cytotoxic, single point]. For O=C(c1cc(COc2ccc(-n3cncn3)cc2)on1)N1CCCC1, the “activity, negative = toxicity” value was inactive: 8.72%. For CN(c1ccc(C(=O)Nc2ccc(S(=O)(=O)N3CCCC3)cc2)cc1)S(C)(=O)=O, the Potency was inconclusive [cytotoxic, partial curve].
